# Earlier results as cited in patent publication US20240189292A1 (priority 2021, published 2024).
# Conditions: in vivo; cited from earlier work
smiles,measurement,value
CC(C)n1c(=O)cc(N[C@@H](C)c2ccccc2)[nH]c1=O [MYK-461],Elimination from the body (in words),slow
